# ± gives the standard deviation of the averaged measurements. The list shows a part of the results.
# Tested on: PfAP2-G AP2 domain (GST-tagged)
# Test: gcPBM binding intensity (ln(normalized median fluorescence intensity)); higher = stronger DNA binding
# Procedure, shortened: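 The highest Masliner-normalised natural-log median intensity across replicate spots of either probe orientation is reported as binding intensity. GST-tagged P. falciparum DNA-binding domains expressed in E. coli were applied for 1 h to an Agilent 4 × 180k array of primer-extended double-stranded 36-bp intergenic genomic probes plus negative controls, and bound protein was detected with Alexa488 anti-GST antibody and scanned at 488 nm.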
row,Sequence,gcPBM binding intensity (ln)
1,TTAGCAACTATTACTACACACATTTTTATATAACTT [CACACA_site6762],10.06 ± 0.014
2,TATTACATACCTTATTGTACAAATTATATATTAAAG [XGTACX_site7334],10.8 ± 0.39
3,TATTATATTATGTGATGTACATATTTATATAGGCCC [XGTACX_site4746],11.2 ± 0.8
4,ATTTATTGACTATTTACACACATATTTATTAAAATA [CACACA_site4980],10.2 ± 0.17
5,TACGCTCCCAGACACACACACACACCGATATAATAT [CACACA_site8098],10.3 ± 0.22
6,ACAGTATCTGGTAGCTGTACGAGTCGTAGAGAGTAG [XGTACX_site2041],11.2 ± 0.71
7,ATTCAGTTATATAATACACACATATATTGACATTAT [CACACA_site2723],10.1 ± 0.13
8,TATTAAACTAAATGTAGTACATACACAAAAGAAACC [XGTACX_site606],11.6 ± 0.98
9,AAATTGAAATATTCCTGTACACATTTTGAAAACTTA [XGTACX_site6101],11.5 ± 0.8
10,AAAATATAGTAACACATACACACATATATATTTATA [CACACA_site2504],10 ± 0.24
11,TTGTTATGTTTTATTTGTACGTAGGTTTCTATCAAA [XGTACX_site7636],11.3 ± 0.83
12,TCTTTTTGCATGTGTGTGCGCACAAAATACACAAAA [GTGCAC_site9718],11.1 ± 0.74
13,TGTTTGAATATAATCACACATTTATATAAAAAGTTA [CACACA_site5237],9.665 ± 0.007
14,TTATGAAAATATTTTTTTCGTTTGATGTATATGTTT [CACACA_negctrl_site1556],9.78 ± 0.15
15,TATAAACATAAAACCAGTACATATATATTTTTCTTC [XGTACX_site212],10.9 ± 0.69
16,ATATTTAATTCATCATGTACACAAATAAGAAACAAA [XGTACX_site8076],11.4 ± 0.78
17,TGAAAATGGGAACCGTGTACAGGGCAGTTATAGGGG [XGTACX_site2950],11.5 ± 0.82
18,AAAAAATATAAATATGTAAAAAGAGAAAAAAAAAAG [GTGCAC_negctrl_site9],9.77 ± 0.19
19,AACAACATTTGATAAACACACAGAAGTATAAATATA [CACACA_site5327],10 ± 0.014
20,TACTTATTAGACTATTGTACATACATTATTAATATT [XGTACX_site7849],10.9 ± 0.35
21,TGATAACCAAAAAGGGGTACATACACAAAAAAATAC [XGTACX_site1254],11.7 ± 0.91
22,TAAAAAATTAAGCAACGTACAAATGAAAAGTATAAT [XGTACX_site1058],11 ± 0.5

row,Sequence,gcPBM binding intensity (ln)
1,TAAAATTTTAACAAAAAAAAAAAAAAAAAAAGAAAA [CACACA_negctrl_site1335],9.77 ± 0.12
2,TAACAATAACTTTATACACACATAATATAAATATAT [CACACA_site7635],9.87 ± 0.014
3,CAAAAACATACCTACACACACAATATGTATATATAA [CACACA_site3514],9.955 ± 0.064
4,TATATCATCATGTATGTACACACATACATATATTAT [CACACA_site8387],11.2 ± 0.72
5,TACGTATTATAAATATGTACATATAATATGTATATA [XGTACX_site468],11.2 ± 0.62
6,ATAAAGAAAAATAGAAGTACATATATGCATGTTAAT [XGTACX_site4480],11.3 ± 0.72
7,AACAATAAAAATAATTGTACAAGTCTAAAAAAAATT [XGTACX_site20],11 ± 0.53
8,ATAACAAAATAATAATGTACGTATAAATATAATTTA [XGTACX_site6049],11.5 ± 0.92
9,AAAATGAATAAAAATACACACATATATGTTATTCTC [CACACA_site2671],9.755 ± 0.078
10,AAATTGAGACAACAGGTGCATATAAATATACAGTGT [GTGCAC_site9634],10.2 ± 0.11
11,TAACAATATCTAGATACACACACATATCTCTCAATC [CACACA_site8122],9.985 ± 0.064
12,TTAATACCCGGACACACACACACAAAATAAAATACA [CACACA_site4296],11 ± 0.69
13,ATTTATTTATTTAGCTGTACATTTATACAGAACGAT [XGTACX_site3336],11.2 ± 1
14,CCAACATGCAGACGCACACACAAAAAAAGCATGCAT [CACACA_site74],10.2 ± 0.22
15,AATAATATATATATTACACACTAATTGTATTATATA [CACACA_site448],9.8 ± 0.014
16,AATTTTTGTTACAAGATGCACTTAATTTTTCTAAAT,10.1 ± 0.18
17,AATAAAAATTCAAGTTGTACTTTTTTAAAAATACAA [XGTACX_site3949],11.6 ± 0.87
18,CATACATTATAAGATACATGCATATATCTGAACATA [TGCATGCA_site797],9.67 ± 0.13
19,ATGTGGAAATAGAGCACACATATATATAATATATAT [CACACA_site884],10 ± 0.11
20,GCAAAACATTTTTAAAATAAAAATAATAAAATATAT [CACACA_negctrl_site219],9.86 ± 0.14
21,AACGAAGCATAAAATGTTATGTATATATATAAATAT [TGCATGCA_negctrl_site304],9.67 ± 0.099
22,TACCAAAAAAAAAAAATAATAATAAAAAAAAAAAAA [TGCATGCA_negctrl_site11],9.485 ± 0.049

# Reference: the supplement of paper PMC11417369
